# Data: PMC12136788
# The list shows a part of the results.
# T1: UNK ZnF1-3 (human, UniProt Q9C0B0 31-174)
# T1 sequence: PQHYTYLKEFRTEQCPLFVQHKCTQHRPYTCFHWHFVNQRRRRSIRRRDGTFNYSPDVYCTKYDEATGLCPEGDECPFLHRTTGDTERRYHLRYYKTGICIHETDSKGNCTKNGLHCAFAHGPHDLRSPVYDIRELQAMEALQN
# B1: chr12:57064132:57064133:-_ENSG00000110958_ENST00000262033|hu_hu|FALSE|FALSE (ssRNA)
# RNA: GGGAGUUCUACAGUCCGACGAUCAGACAUGUCUUCAUCUGAAUCAUCUUCCCAGUCUUUCCAAUUAUUGAAGUCGACACUAAGCCAAUUAAGCUUUGCCCUUUCUUUUGUUAACCUUGGCCAUGACUGGCCAGAUUCUCCUUUCAACAGAGGAUUGAGCAUCA
# B2: 25286590_25286710_898_CDS_ENSMUSG00000054793_ENSMUST00000068023|mouse|control|control (ssRNA)
# RNA: GGGAGUUCUACAGUCCGACGAUCCGCCGCCUCGCAGGUGUAGGUGCCGUUAUCUGCAGAUACCAGGCCAGGUAGCGUGAGCGUCUCGCCCACCGCCUCCGCCCUCUCUGGCAGAGACUCAUUCCCACGGUUCCAGCGGAUCUGCAACAGAGGAUUGAGCAUCA
# B3: chr1:58468927:58468928:-_ENSMUSG00000026034_ENSMUST00000148330|mus_mus|mus_mus_mus_hu_False|48_98 (ssRNA)
# RNA: GGGAGUUCUACAGUCCGACGAUCAAUUACUGAAAAAUGAAAGAUGUACCUUAGCUAUGUACUUAAUGAACCAAAUUACCCAAACAACAUAAAAUGUGCAAUAUAAAAAUGUUAAGAAUUUACAAAGCUGUACAAAAUAACUUACAACAGAGGAUUGAGCAUCA
# B4: 86424909_86448781_792_3pUTR_ENSMUSG00000018171_ENSMUST00000018315|mouse|control|control (ssRNA)
# RNA: GGGAGUUCUACAGUCCGACGAUCCCGUGAUGCAAAGUCUUGUGCAGCCUCUGCAUGUUCCAGCAUUUCUUCAAAUUCCUGAUACUCUUCAUCAUCUGGUUCAGCACCUGAGAGGCGAGCUGCCCUGGCCAUGAAAUAUGGAGGCAACAGAGGAUUGAGCAUCA
# B5: 7796676_7796796_820_CDS_ENSG00000170004_ENST00000380358|human|control|control (ssRNA)
# RNA: GGGAGUUCUACAGUCCGACGAUCUAUGGGGGUGGCCGACGAGACAGCAGCUGACACCUGCUCAGCUACAGCUGCUGCUGCUGCUGCCGCUGCCGCCGCCACAGCAGCUGCUGACCCCUUGAAGGGGUUGUUGGCACUGAACUCCAACAGAGGAUUGAGCAUCA
# B6: chr17:62495991:62495992:-_ENSG00000108654_ENST00000581693|hu_mus|motif|central (ssRNA)
# RNA: GGGAGUUCUACAGUCCGACGAUCCACCAUAAUUACUGCUGCACUGCAGUCAUUUCUGCAUUUCCCAUGUUUCUUAAAUAACGGUCUUGUCUGAUAACACACAAUAUAAAGAGCAAUUAUGAAAAACAGACAUUUACAUAUACUCAACAGAGGAUUGAGCAUCA
# B7: chr13:100201707:100201708:-_ENSMUSG00000052727_ENSMUST00000064762|mus_mus|FALSE|FALSE (ssRNA)
# RNA: GGGAGUUCUACAGUCCGACGAUCACUGACGUCUAUUUGUGUUGGAGAUACAUCUCCUCCCAAUUUCCUUUCAUCCAAAGCUAGAGCUGAUUGAGAACUCAUGGUUUCAACAUCACUGGUUUUCUUUUCUGGACCAAAGUCUUCCAACAGAGGAUUGAGCAUCA
# B8: chr4:88365945:88365946:-_ENSMUSG00000070923_ENSMUST00000094993|mus_mus|FALSE|FALSE (ssRNA)
# RNA: GGGAGUUCUACAGUCCGACGAUCACUUGUAUAGCCAUUUACUAAACAAUAUCAAGCCAAACCAAAAAAAAAAAAGGGUCUAAGUUACCUUUUUGUCUAUUAACUGUAGCAAUAAGGAGAAACAAUACAAGGGGAUGAACAAGACAACAGAGGAUUGAGCAUCA
# B9: chr10:90611280:90611281:-_ENSMUSG00000019961_ENSMUST00000072239|mus_mus|motif|central (ssRNA)
# RNA: GGGAGUUCUACAGUCCGACGAUCGAUUUAAAAGCAAGUCAGUUAUACUUUUAAAUCAAAUUACAUCGGGAAUUAUAUGCCGGAAACAAACAAAAAUAACACCCAGACUCAACCCAAAACAAAAAACCCAAAAAUCCCUGGCUGCAACAGAGGAUUGAGCAUCA
# B10: chr6:149979360:149979361:-_ENSG00000131023_ENST00000543571|hu_mus|motif|central (ssRNA)
# RNA: GGGAGUUCUACAGUCCGACGAUCAGGGAAUGAUUGGGAAAAUACAAAUAGAUUCAUUAAAAACAGACUGAUUAUUUGUUCGGGUACAUUCAGAAAUAUCCAAAAACAGUUGUUAUAUUGCAAAGCUGUAAUUUUUCCUAGCAACAACAGAGGAUUGAGCAUCA
# B11: chr4:133834700:133834701:-_ENSMUSG00000050890_ENSMUST00000105876|mus_mus|FALSE|FALSE (ssRNA)
# RNA: GGGAGUUCUACAGUCCGACGAUCGUAGAAGUCCGUCCCGCAUGCCGUGGAAAGGAAACACUUGUUUACACUGACAGGUUCUUCUGGGUUCUGCCCAGAUGCUGAGCAAACUUUACUUAGGCCGAAAUCAGCCACUUUGAGUGUCAACAGAGGAUUGAGCAUCA
# B12: chr1:6260860:6260861:+_ENSMUSG00000025907_ENSMUST00000027040|perfect_dup|motif|central (ssRNA)
# RNA: GGGAGUUCUACAGUCCGACGAUCUGGUUUGAGAUCCAGGGCAGGAAGAGACUCUGAGUGCAGAAAAUAUAAAGUAGGACGGACAGUAAACAAUACAUAAUUGUCGUGCCGCUCAUCUAGGAUGAUGAGAACCAAAUCUCCCACCAACAGAGGAUUGAGCAUCA
# B13: chr7:156759685:156759686:+_ENSG00000146909_ENST00000275820|hu_mus|FALSE|FALSE (ssRNA)
# RNA: GGGAGUUCUACAGUCCGACGAUCCAGCAGAUGAACCAGAUUUGAGAACUUAGUGUCUGGCAAAUUUUCUAAGUCCCGAAAUUUGUCCCAUAUGCUGAACUGGAAAGUCAUCUGGAAUCUCCUUUCAUAGUCACAGAAUUUGCUCAACAGAGGAUUGAGCAUCA
# B14: chr4:57314706:57314707:+_ENSG00000128050_ENST00000264221|hu_mus|hu_hu_hu_mus_True|38_88 (ssRNA)
# RNA: GGGAGUUCUACAGUCCGACGAUCCAGAAUUUCAAAAAUAGCUUGUGUAGCAUGACUCAUGAUGUCCACUUCAGUCUGCCCUAUAACAAGGCCAGCAAAGCAAAAUUUUGCAGCAAUGAGUUGCUCCUCAGACCACUGUGGAUCCAACAGAGGAUUGAGCAUCA
# B15: chr11:60965468:60965469:-_ENSMUSG00000042506_ENSMUST00000041683|mus_mus|motif|central (ssRNA)
# RNA: GGGAGUUCUACAGUCCGACGAUCCUAACCACAGUACAAUCAUUGGAUUUUUUUUCCCUCACGAUUUUUUAUUUCAAAGCGGUAAUAAAUGAAACAAACCACUUGUCAAAAAGAACAAUGAUUUUACACAAGGAAAAGCAUACACAACAGAGGAUUGAGCAUCA
# B16: chr2:153237265:153237266:-_ENSMUSG00000061411_ENSMUST00000109784|mus_mus|mus_mus_mus_hu_False|18_98 (ssRNA)
# RNA: GGGAGUUCUACAGUCCGACGAUCAAAAAAAAAAAAAGAAAAGUGUCCUUGUGCCCAAAGUCUCAGGUGCUUGGAGUGUGGCUAGAAACAGCUCUUUUGGAUCCCACCUCUUUCAAAAAACAGUGUAACCAACUGGUGAGGCAGCAACAGAGGAUUGAGCAUCA
# B17: 142074278_142075813_3790_CDS_ENSG00000114127_ENST00000264951|human|control|control (ssRNA)
# RNA: GGGAGUUCUACAGUCCGACGAUCUCCAGAUCCCUGUAAGGACUGCCAAAUGUUGCAGAAUUCAUCAUCAUCUUUAGUAGGUACUUGAGUAGGAACAAAAAGUGAUUGAGGGGAAUGGUUGAGGGCUCCCAAAUGCCCAGAGGACAACAGAGGAUUGAGCAUCA
# B18: chr6:38652254:38652255:-_ENSG00000124767_ENST00000373365|hu_hu|hu_hu_hu_mus_False|98_98 (ssRNA)
# RNA: GGGAGUUCUACAGUCCGACGAUCCGAGAACUUCAUAAUGGGAAAAUCAAGCUUCUGCAGGAGGGUCAGUCCAAGAACCCUCGUAUAAAAAUCCAGGGACUUCUUAGGAUCCUUAAUUCUUAGCAUCGUUUGCUGCAGUAGAAACAACAGAGGAUUGAGCAUCA
# B19: 57965999_57966431_1852_CDS_ENSG00000155980_ENST00000455537|human|control|control (ssRNA)
# RNA: GGGAGUUCUACAGUCCGACGAUCUCGUUUUCGCUGGUGUCCACUGACCUCCUGUAGCCGCUGCAACUCAGACUCCAGGGACAGCAUGGUGGCCACCUUCUGAGACAGCUCAUCCACCAGAAGCUGGUUCUGCUGGCUCUUCUCCAACAGAGGAUUGAGCAUCA
# B20: chr9:51896463:51896464:+_ENSMUSG00000032050_ENSMUST00000163153|mus_hu|FALSE|FALSE (ssRNA)
# RNA: GGGAGUUCUACAGUCCGACGAUCUUUCAAUACUGUAUCAAACUGAUGUAGCUAUGGUAGUGCACAUAAUUCAAAAUGAGGAAAAUUAACAAAAAUCCAAUGAAAGUUCAGGUUUUUAUCUAUUAUGCAAUUGCUUUAAAGUGACAACAGAGGAUUGAGCAUCA
# B21: chr4:134969704:134969705:-_ENSMUSG00000059713_ENSMUST00000030606|mus_mus|FALSE|FALSE (ssRNA)
# RNA: GGGAGUUCUACAGUCCGACGAUCACUCCCAUGGUUUAAUUAUGCGUAAAGCUUUCCUCUGAAAACCAAAUCCUCCAGUCUAAAAAUAGUUUACAUAAAAAUAUAAAGCCCAGGCCCACCGUUAGUCUGGAAUAGAACUUGAUUCAACAGAGGAUUGAGCAUCA
# B22: chr8:117878989:117878990:-_ENSG00000164754_ENST00000297338|hu_hu|hu_hu_hu_mus_True|68_108 (ssRNA)
# RNA: GGGAGUUCUACAGUCCGACGAUCCCAGAGGCCCUCUUUUACUGAGGACAAAAUGUGCGUAGAACAUUGUUCUGGCUUGCUAUGAAAUAAGAAGAAACCUGGAUCUCGGCGGGGAGCCGGGAGGGGUGGGUGGCCCGGGGAGGGCAACAGAGGAUUGAGCAUCA
# Target: T1, UNK ZnF1-3
# Assay: nsRBNS (natural sequence RNA bind-n-seq); RBNS binding buffer (assumed for nsRBNS): 25 mM Tris pH 7.5, 150 mM KCl, 3 mM MgCl2, 0.01% Triton X-100, 500 ug/ml BSA, 20 U/ml SUPERase-In, 4 C; UNK is unkempt and MSI1 is Musashi-1; names of the RNAs are library labels; protein concentration not given here; high values mean tight binding
row,Binder,binding signal [enrichment R]
1,B1,0.524
2,B2,0.515
3,B3,2.12
4,B4,0.766
5,B5,0.423
6,B6,0.931
7,B7,0.481
8,B8,1.37
9,B9,1.83
10,B10,0.849
11,B11,0.614
12,B12,2.34
13,B13,0.88
14,B14,0.952
15,B15,0.852
16,B16,2.94
17,B17,1.33
18,B18,1.03
19,B19,0.456
20,B20,1.21
21,B21,2
22,B22,1.6
